{"source": "ChEMBL document CHEMBL4888484", "about": "“Replenishing the malaria drug discovery pipeline: Screening and hit evaluation of the MMV Hit Generation Library 1 (HGL1) against asexual blood stage Plasmodium falciparum ,using a nano luciferase reporter read-out” (2022)", "note": "The whole screen tested about 150,000 compounds, of which about 540 (0.36%) showed an effect of 50% or more. The list shows a part of the results.", "data": [{"tested_on": "Plasmodium falciparum", "assay": "Primary screen in NF54 nanoGlo assay, in single point, at 2uM, 72h; a lower Z score goes with more inhibition", "type": "functional, Erythrocyte", "settings": "timepoint 72 hour", "units": {"% Inhibition": "%"}, "values": [{"compound": "Cn1nc(-c2nc(-c3ccco3)nn2C2CCCCC2)ccc1=O", "% Inhibition": -16, "Z score": 2.41}, {"compound": "O=S(=O)(c1ccc(Cl)s1)N1CCc2nc(-c3ccc(Cl)cc3)ncc2C1", "% Inhibition": -11, "Z score": 1.78}, {"compound": "CC1CCC(O)C(C2CCCN2C(=O)Nc2ccsc2Cl)C1", "note": "(stereo unspecified)", "% Inhibition": -2, "Z score": 0.3}, {"compound": "O=C(CS(=O)(=O)c1ccccc1Cl)NC[C@H]1CCCO1", "% Inhibition": -9, "Z score": 1.46}, {"compound": "CC(=O)N1CCN(C(=O)c2c(C(F)(F)F)nn(C(C)C)c2C)CC1", "% Inhibition": -4, "Z score": 0.68}, {"compound": "Cc1cccc(C(=O)NCCOCC(F)F)c1O", "% Inhibition": 1, "Z score": -0.25}, {"compound": "Clc1c2ccccc2c(-c2nc(-c3ccc(Br)cc3)c(-c3ccc(Br)cc3)[nH]2)c2ccccc12", "% Inhibition": -18, "Z score": 1.95}, {"compound": "Cc1ccc(OCCc2cnc3c(C#N)cnn3c2)c(Cl)c1", "% Inhibition": 7, "Z score": -0.99}, {"compound": "CCNC(=O)N1CCC(CCOC)(NC(=O)NCc2ccccc2)CC1", "% Inhibition": -1, "Z score": 0.21}, {"compound": "CC(C)CC[C@H]1CCCCN1C(=O)C(=O)Nc1cccnc1", "% Inhibition": 7, "Z score": -0.9}, {"compound": "COc1ccc(CC(=O)NCCNC(=O)c2nc(CCn3ccc4ccccc43)no2)cc1", "% Inhibition": -16, "Z score": 2.95}, {"compound": "COc1ccc(-c2nc(-c3nnn4c3CO[C@H](c3ccc(Cl)cc3)C4)no2)c(OC)c1", "% Inhibition": -8, "Z score": 1.48}, {"compound": "O=C1C2C(c3cccs3)NC(Cc3ccccc3)(C(=O)O)C2C(=O)N1c1ccc(F)cc1", "note": "(stereo unspecified)", "% Inhibition": -8, "Z score": 0.94}, {"compound": "CN(C)c1ccc(C2(C3(c4ccc(N(C)C)cc4)C(=O)c4ccccc4C3=O)C(=O)c3ccccc3C2=O)cc1", "% Inhibition": -7, "Z score": 0.98}, {"compound": "Cc1nn(-c2cc(N3CCCC3)ncn2)c(C)c1CCC(=O)N1CCOCC1", "% Inhibition": -15, "Z score": 2.89}, {"compound": "CNCCOc1cccc(-c2cccc(-c3cc[nH]n3)c2)c1", "% Inhibition": -9, "Z score": 1.36}, {"compound": "Cc1nnc([C@@H](NC(=O)c2ccccc2F)C(N)=O)o1", "% Inhibition": -5, "Z score": 0.66}, {"compound": "CS(=O)(=O)[C@H]1CCCN(C(=O)CCC2CC2)C1", "% Inhibition": -10, "Z score": 1.45}, {"compound": "COC[C@@]1(CNC(=O)c2cc(C(N)=O)c[nH]2)CCCN1C(=O)OC(C)(C)C", "% Inhibition": -19, "Z score": 3.32}, {"compound": "CCN1CCC2CCC(C1)N2C(=O)C(=O)Nc1cccc(C)c1C#N", "note": "(stereo unspecified)", "% Inhibition": -7, "Z score": 1.05}, {"compound": "CCn1ccc2cc(CCC(=O)NC3CCCC3)ccc21", "% Inhibition": -1, "Z score": 0.08}, {"compound": "COc1cc(Cl)ccc1-c1nc(-c2cccc(-c3ccn[nH]3)c2)no1", "% Inhibition": -20, "Z score": 2.41}, {"compound": "CC(C)N(CCOCCO)c1cnc(C#N)cn1", "% Inhibition": -7, "Z score": 0.66}, {"compound": "O=C(c1cccn2c(=O)c3cc(Cl)ccc3nc12)N1CCN(Cc2ccccc2)CC1", "% Inhibition": -4, "Z score": 0.46}, {"compound": "O=C1c2ccccc2C(=O)N1CCn1ncccc1=O", "% Inhibition": 1, "Z score": -0.18}, {"compound": "O=C1CC2(CCN(Cc3ccc(C(F)(F)F)cc3)CC2)CN1", "% Inhibition": 22, "Z score": -2.86}, {"compound": "Cc1cc(-c2ccc(C(=O)N3CCN(C)[C@@H](CCO)C3)cc2)nc2ccccc12", "% Inhibition": -4, "Z score": 0.69}, {"compound": "O=C(CN1C(=O)CCc2cc(Br)ccc21)NCCc1ccccc1", "% Inhibition": -7, "Z score": 0.9}, {"compound": "Cc1cccc(S(=O)(=O)Nc2ccc(-n3nn[nH]c3=O)cc2)c1F", "% Inhibition": -12, "Z score": 1.09}, {"compound": "c1ccc(-c2noc(-c3ccc(N4CCc5ccccc5C4)nn3)n2)cc1", "% Inhibition": -15, "Z score": 2.15}, {"compound": "C[C@H](C#N)CNCc1c(CNC(=O)OC(C)(C)C)cnn1C", "% Inhibition": 8, "Z score": -1.05}, {"compound": "CC(=O)N[C@@H]1C=C[C@@H](c2c(C)nn(-c3ccc(C(C)(C)C)cc3)c2C)C1", "% Inhibition": 13, "Z score": -1.55}, {"compound": "CC(=O)N(C)c1cccc(NC(=O)NC2(C)Cc3ccccc3C2)c1", "% Inhibition": -1, "Z score": 0.1}, {"compound": "C[C@H]1CCCCN1CC(=O)NCCC1=CCCCC1", "% Inhibition": -16, "Z score": 2.06}, {"compound": "c1ccc2c(-c3noc4c3CN(C[C@H]3CCCO3)CC4)cccc2c1", "% Inhibition": -2, "Z score": 0.39}, {"compound": "CCN1CC(=O)N(Cc2cnc3n2CCCC3)C1=O", "% Inhibition": -10, "Z score": 0.98}, {"compound": "O=C(Cn1cnnn1)N(CC(F)(F)F)c1cccc(Cl)c1", "% Inhibition": -2, "Z score": 0.45}, {"compound": "CC(C)(C)n1cc(C(=O)N2CCc3ccc(C#N)cc32)nn1", "% Inhibition": -2, "Z score": 0.4}, {"compound": "CC(C)(C)CC(=O)N[C@@H]1CC[C@H]2CCOc3ccccc3C(=O)N3CCN(Cc4ccc(C(F)(F)F)cc4)C[C@H]3C(=O)NC[C@H]1O2", "% Inhibition": -6, "Z score": 1.18}, {"compound": "CN(C(=O)[C@@H]1COCCN1CC1CCC1)C1CCC1", "% Inhibition": -6, "Z score": 0.75}, {"compound": "CC(=O)Nc1ccc(S(=O)(=O)NCCc2cc(C)no2)cc1", "% Inhibition": -3, "Z score": 0.53}, {"compound": "CC1CCC(C)N1C(C)C(=O)NC(CO)Cc1c[nH]c2ccccc12", "note": "(stereo unspecified)", "% Inhibition": -10, "Z score": 0.99}, {"compound": "CC(=O)Nc1ccc(C(=O)Nc2cccnc2O)cn1", "% Inhibition": -21, "Z score": 2.89}, {"compound": "N#Cc1ccc(N2CC=C(c3ccccc3F)C2)nc1", "% Inhibition": -4, "Z score": 0.53}, {"compound": "CC1(C)CCC[C@@]1(O)CNc1cncc(C#N)n1", "% Inhibition": -5, "Z score": 0.7}, {"compound": "Cc1cccc(-c2nn(-c3ccccc3)c3nc(OCC(=O)NCc4ccccc4C)cc(C)c23)c1", "% Inhibition": -5, "Z score": 0.65}, {"compound": "O=C(Nc1nc2c(s1)CN(S(=O)(=O)c1c(F)cccc1F)CC2)c1ccco1", "% Inhibition": -5, "Z score": 0.7}, {"compound": "O=C1NC(c2ccc3c(c2)OCO3)C(C(=O)c2ccc(F)cc2)C(O)(C(F)(F)F)N1", "note": "(stereo unspecified)", "% Inhibition": -1, "Z score": 0.09}, {"compound": "CCc1nnc(Cn2cc(-c3ccc(OC)c(OC)c3)nn2)s1", "% Inhibition": -10, "Z score": 1.95}, {"compound": "O=C(O)c1cnc(C=Cc2cccc(Oc3ccccc3)c2)[nH]c1=O", "% Inhibition": -9, "Z score": 0.85}, {"compound": "Cc1cccc2c1CC(C)(C)N(C(=O)Cc1cnn(C)c1C)C2", "% Inhibition": -6, "Z score": 0.97}, {"compound": "Cc1nc([C@H]2CCCN(Cc3ccc(C(=O)O)s3)C2)sc1C", "% Inhibition": -7, "Z score": 1.07}, {"compound": "Cc1nc([C@H](C)N(C)C(=O)c2ncc[nH]2)c(C)s1", "% Inhibition": -14, "Z score": 2.6}, {"compound": "Cc1ccc2cc(CN3CCN(c4cc(N)nc(N)n4)CC3)c(O)nc2c1", "% Inhibition": -1, "Z score": 0.16}, {"compound": "Cc1cnc(C)c(NC[C@H]2CCCN2C(C)C)n1", "% Inhibition": 6, "Z score": -1.17}, {"compound": "CC(C)N(C)S(=O)(=O)N(C)Cc1cccnc1", "% Inhibition": -10, "Z score": 1.01}, {"compound": "CN(Cc1ncccn1)c1nc(C2CCOCC2)ns1", "% Inhibition": -1, "Z score": 0.13}, {"compound": "COc1ccc(-c2nc(=O)c(CCC(=O)N3CCc4ccccc4C3)n[nH]2)cc1", "% Inhibition": -6, "Z score": 0.55}, {"compound": "C/C=C(\\C)C(=O)N1CCC(c2cn(Cc3ccc(C(F)(F)F)cc3)c3ccccc23)CC1", "% Inhibition": -5, "Z score": 0.42}, {"compound": "CCCCN(Cc1ccccc1)C(=O)C[C@]1(c2cccc(F)c2)CC(=O)N(C)C1=O", "% Inhibition": -8, "Z score": 1.09}, {"compound": "CCC[C@H]1CN(S(C)(=O)=O)C[C@@H]1NC(=O)c1ccc(C#N)nc1", "% Inhibition": -4, "Z score": 0.59}, {"compound": "O=C1Nc2ccc(Cl)cc2C(c2ccccc2)C1N1CCOCC1", "note": "(stereo unspecified)", "% Inhibition": 35, "Z score": -3.94}, {"compound": "CCN(CC)S(=O)(=O)c1ccc(NC(=O)CCC(=O)c2ccc3c(c2)OCCCO3)cc1", "% Inhibition": -8, "Z score": 0.76}, {"compound": "CN(C(=O)c1ccc(O)cc1F)c1nccs1", "% Inhibition": 4, "Z score": -0.39}, {"compound": "Cc1cc(NC(=O)C2CCCCCC2)nc(=O)[nH]1", "% Inhibition": 2, "Z score": -0.27}, {"compound": "CCC1CCCCN1C(=O)CC(=O)N1CCCCC1CC", "note": "(stereo unspecified)", "% Inhibition": -5, "Z score": 0.73}, {"compound": "O=C(Nc1cccc(Br)c1)c1ncn(C[C@H](O)c2ccc(F)cc2)n1", "% Inhibition": -6, "Z score": 0.64}, {"compound": "COc1ccc(F)c(CN2CCC[C@@]3(CCN(C(=O)c4cnccn4)C3)C2)c1", "% Inhibition": 1, "Z score": -0.11}, {"compound": "Cc1cc(C)c(C(=O)N2C[C@@H]3CN(CC(C)C)CC[C@]3(CO)C2)c(C)c1", "% Inhibition": 3, "Z score": -0.55}, {"compound": "CCOC(Cn1cc(C(=O)NC[C@H](c2ccccc2)C(C)C)nn1)OCC", "% Inhibition": -9, "Z score": 1.41}, {"compound": "Cn1c(N2CCC[C@H](C(=O)Nc3ccc4c(c3)OCCO4)C2)cc(=O)n(C)c1=O", "% Inhibition": -5, "Z score": 0.98}, {"compound": "CC(C)(C)OC(=O)Nc1ccccc1CC(=O)NCc1ccco1", "% Inhibition": -9, "Z score": 1.14}, {"compound": "O=S1(=O)CC[C@H](Nc2nnnc3c2cnn3-c2ccccc2)C1", "% Inhibition": -2, "Z score": 0.29}, {"compound": "CCc1ccc(CN(C)Cc2nccn2C)o1", "% Inhibition": 9, "Z score": -1.62}, {"compound": "CN(C[C@H]1CCCCO1)C(=O)NCc1cccc(C(F)(F)F)n1", "% Inhibition": -2, "Z score": 0.34}, {"compound": "COc1cccc(CC(C)(C)NC(=O)CN(C)C)c1", "% Inhibition": -6, "Z score": 1.04}, {"compound": "Cc1ccc(-c2ccc(C(=O)NCCNC(=O)c3cnccn3)o2)cc1Cl", "% Inhibition": -4, "Z score": 0.59}, {"compound": "C=CCn1c(C(=O)NCCN2CCCCC2)cc2c(OCc3cccc(C)c3)cccc21", "% Inhibition": -11, "Z score": 1.34}, {"compound": "Cn1cc(Cl)c(C(=O)NCc2nc(C(C)(C)C)no2)n1", "% Inhibition": -2, "Z score": 0.42}, {"compound": "Cc1ccc(-c2cc(-c3ccc(C)cc3)c3c(n2)-c2cc(F)ccc2OC3)cc1", "% Inhibition": 11, "Z score": -1.26}, {"compound": "CC(C)N1Cc2cc(C(=O)NCc3ccc(Cl)cc3)sc2C1", "% Inhibition": 3, "Z score": -0.51}, {"compound": "Cc1cccc(NC(=O)C2C(=O)N[C@]34CCCCC3C2c2ccccc2O4)c1", "note": "(stereo partly specified)", "% Inhibition": 2, "Z score": -0.27}, {"compound": "Cc1nc(CC(=O)NC[C@@H]2COc3ccccc3C2)cs1", "% Inhibition": 4, "Z score": -0.49}]}]}
